This sample is rich in variants without activity.

B1: TPR 5TU (parent)
chain: GGAUCUUCUCGAUCUAACAAAAAAGACAAAUCUGCCACAAAGCUUGAGAGCAUCUUCGGAUGCAGAGGCGGCAGCCUUCGGUGGCGCGAUAGCGCCAACGUUCUCAACUAUGACACGCAAAACGCGUGCUCCGUUGAAUGGAGUUUAUCAUG

Variants of B1 are the subject of this data set. Kind of data set: polymerase ribozyme fitness, log enrichment relative to wild type (log ratio); higher = more active; in vitro selection for triplet polymerase activity. An outline of the steps:
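Libraries of mutants in each subunit of a heterodimeric triplet polymerase ribozyme were generated by PCR and transcribed. In triplicate, each went through one in vitro selection round: annealing with biotinylated primer, partner subunit and triplets; frozen incubation at −7 °C; gel excision of extended constructs; streptavidin-bead capture; RT-PCR. Fitness, taken from Illumina sequencing of input and output libraries, is the logarithm of a genotype's enrichment over wild-type enrichment, averaged across replicates with inverse-variance weights. The logarithm is base 2, and genotypes needed ≥10 input reads and ≥1 read per output to be kept.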
U13C A49C G74U U77A C93U U134G: the “polymerase ribozyme fitness (log ratio)” value is at most -4.2.
Consider A12U A20C G86U G100U U151A, for which the “polymerase ribozyme fitness (log ratio)” value is at most -4.2.
To C14G A22C C87U C105G U130G belongs at most -4.2; to A12G U31C C43A, at most -4.2.
To A12U G71A A107C belongs at most -4.2.
Take A12G G25A A26U A28C U56A: the “polymerase ribozyme fitness (log ratio)” value was at most -4.2.
As for A12U A16U A17U C27U A47U G48A C76G G86U U145A G152U, the “polymerase ribozyme fitness (log ratio)” value is at most -4.2.
For A12U A40G C54A U61A G83A A91G C103A, the “polymerase ribozyme fitness (log ratio)” value was at most -4.2.
As to A12U G92U, the “polymerase ribozyme fitness (log ratio)” value is -1.64.
On to U13G C43A U82G G100A U146G, for which the “polymerase ribozyme fitness (log ratio)” value was at most -4.2.
For the variant U13G C32U C36U U55A G68U U77G G143U U144C, the “polymerase ribozyme fitness (log ratio)” value was at most -4.2.
As to A12U A40C A47U C85G A89G U148G, the “polymerase ribozyme fitness (log ratio)” value is at most -4.2.
C14G A19U G34U C87G G100A A142C: the “polymerase ribozyme fitness (log ratio)” value is at most -4.2.
As for C14G A22C C57U A66U U90C A91U U148G, the “polymerase ribozyme fitness (log ratio)” value is at most -4.2.
In the case of A12U A41U G65C G70C C79U, the “polymerase ribozyme fitness (log ratio)” value was at most -4.2.
As for A12U A40C G84A C99A G124A U148G, the “polymerase ribozyme fitness (log ratio)” value is at most -4.2.
With U13C A49G C54G G68A, the “polymerase ribozyme fitness (log ratio)” value was at most -4.2.
As for C14A A28U G46C U61A C95U U139C A150C, the “polymerase ribozyme fitness (log ratio)” value was at most -4.2.
For the variant C14G C32G U82G G92U, the “polymerase ribozyme fitness (log ratio)” value was at most -4.2.
As for A12G G50U G83A C87U C114U C118G A138G G141U, the figure is at most -4.2; as for C14G A20G C75A C96G G141C, at most -4.2.
Regarding A12U A20G G25U A37U C43U C95G C116U G136C, the “polymerase ribozyme fitness (log ratio)” value was at most -4.2.
In the case of U13C A40U A64C U90G G100C A120U, the “polymerase ribozyme fitness (log ratio)” value is at most -4.2.
For A12U U77G G84A C85A G94A G100A C105U G128U U130G, the “polymerase ribozyme fitness (log ratio)” value is at most -4.2.
On to A12U A20U A21C A29C C43A C76A, for which the “polymerase ribozyme fitness (log ratio)” value is at most -4.2.
In the case of A12U A23C C54U C116G A147C U151A, the “polymerase ribozyme fitness (log ratio)” value was at most -4.2.
As to C14G A23U A28U G50C C54A A66G C76U U82C C93U, the “polymerase ribozyme fitness (log ratio)” value is at most -4.2.
Turning to C14G A26U A40C G68C G94A A142G, the “polymerase ribozyme fitness (log ratio)” value was at most -4.2.
Turning to A12G C75U C93U U144C, the “polymerase ribozyme fitness (log ratio)” value was -0.389.
For the variant U13G C36G A41U G50A G83A G86U C95U, the “polymerase ribozyme fitness (log ratio)” value was at most -4.2.
Consider A12U A110G, for which the “polymerase ribozyme fitness (log ratio)” value is -3.35.
Consider U13G G70U C85U C99A A142C, for which the “polymerase ribozyme fitness (log ratio)” value is at most -4.2.
As for U13C A19C A89U C95U U146G A150U, the “polymerase ribozyme fitness (log ratio)” value is -2.94.
For the variant C14A A16U A19U A20G A107C G124A, the “polymerase ribozyme fitness (log ratio)” value was at most -4.2.
Consider A12U C76U G80C C87U C108G A137U, for which the “polymerase ribozyme fitness (log ratio)” value was at most -4.2.
As for U13C C85G C99A A138C, the figure is at most -4.2; as for C14G A24U A28U C43U A73G U82C C103G G136A U146C, at most -4.2; as for C14A U90G A137C, at most -4.2.
On to A12U A28U A29G A30U G42C A52C U61A C63U G83A C87U C103A, for which the “polymerase ribozyme fitness (log ratio)” value is at most -4.2.
To C14A A19U A26U A28U C51A G86U A122C belongs at most -4.2.
As to A12U A16G U44A A47C G58C U61A C87U C108G A119G, the “polymerase ribozyme fitness (log ratio)” value is at most -4.2.
As to A12U C18U A26C C54U C76G G84C A115G A142C U145C, the “polymerase ribozyme fitness (log ratio)” value was at most -4.2.
U13G U56G G84U C85A C99U A138U: the “polymerase ribozyme fitness (log ratio)” value is at most -4.2.
Regarding A12G C85A A89G A97G A98C U139A, the “polymerase ribozyme fitness (log ratio)” value is at most -4.2.
With C14G A23G A28G G140A U144G, the “polymerase ribozyme fitness (log ratio)” value is at most -4.2.
For C14G C27G G67A G92A A107G, the “polymerase ribozyme fitness (log ratio)” value is at most -4.2.
For the variant U13G C79A C118U, the “polymerase ribozyme fitness (log ratio)” value was at most -4.2.
For C14G A26U A30U C75A C93U G141A U148G U151G, the “polymerase ribozyme fitness (log ratio)” value was at most -4.2.
For the variant A12G G25C G68C G84U U135G A150G, the “polymerase ribozyme fitness (log ratio)” value is at most -4.2.
On to U13C C14G C43G A91G A106U U109G A138G, for which the “polymerase ribozyme fitness (log ratio)” value was -4.06.
Consider A12U C18G G50A G70C A89U C93U A106G G126A G141A C149U, for which the “polymerase ribozyme fitness (log ratio)” value is at most -4.2.
In the case of U13A A30G A37C G68U, the “polymerase ribozyme fitness (log ratio)” value was at most -4.2.
Consider U13C A37U U102C C105U A119G, for which the “polymerase ribozyme fitness (log ratio)” value is at most -4.2.
As to U13G G68A U139C, the “polymerase ribozyme fitness (log ratio)” value was at most -4.2.
As for A12U U44G C54U C85U A98G, the “polymerase ribozyme fitness (log ratio)” value was at most -4.2.
Consider C14A A150G, for which the “polymerase ribozyme fitness (log ratio)” value was -2.78.
Take U13G C32G G94A: the “polymerase ribozyme fitness (log ratio)” value was at most -4.2.
For C14G C18G U31G A49U U56A A91U G100A U127C C132A U144G, the “polymerase ribozyme fitness (log ratio)” value was at most -4.2.
In the case of U13G A19U A22C C54G A60U C76A C79U G92U A98U, the “polymerase ribozyme fitness (log ratio)” value is at most -4.2.
With C14G A21U A60U C75A U77G A89U C95A, the “polymerase ribozyme fitness (log ratio)” value is at most -4.2.
With U13G C76A C132U A150U, the “polymerase ribozyme fitness (log ratio)” value was at most -4.2.
Consider A12G G62U A66C G81A C95G C114A, for which the “polymerase ribozyme fitness (log ratio)” value was at most -4.2.
Consider U13A A16C A91G, for which the “polymerase ribozyme fitness (log ratio)” value is -2.83.
For the variant U13C U33A A91G G94U U151G, the “polymerase ribozyme fitness (log ratio)” value is at most -4.2.
Consider U13G A122C A142C, for which the “polymerase ribozyme fitness (log ratio)” value was -2.05.
For C14A A20C U33A A40C G48A G86U, the “polymerase ribozyme fitness (log ratio)” value is at most -4.2.
As to A12U G68A G71A C93U U134G, the “polymerase ribozyme fitness (log ratio)” value is at most -4.2.
In the case of C14G C18G U82G G84C, the “polymerase ribozyme fitness (log ratio)” value is at most -4.2.
C14A C35G A39U C96A A119C: the “polymerase ribozyme fitness (log ratio)” value was at most -4.2.
With C14G A39U, the “polymerase ribozyme fitness (log ratio)” value was at most -4.2.
As to U13G A21C A23U A30G U31A G62A C76G A89U A91U C114U C118G U148C, the “polymerase ribozyme fitness (log ratio)” value is at most -4.2.
To U13A G80U G100U G136A C149U belongs at most -4.2; to A12U C38U G83U, -0.788; to C14G A19G G46A C72G G84U, at most -4.2.
As for A12G C69U G74U U78G G84A A138C G143U, the figure is at most -4.2; as for A12U A19C C95U C105A, -1.03; as for A12U A28G A49U C54G C93G, at most -4.2.
To U13C C32U A47C C57A U77A belongs at most -4.2; to A12U A21G A40U G86U C96G U139C, at most -4.2; to U13A A40U G50U A64C G92U C118U, at most -4.2.
As for A12U C76G C85U C103A G126C U145G, the “polymerase ribozyme fitness (log ratio)” value was at most -4.2.
Turning to C14A A22G A30G U31A A52U G83A U151C, the “polymerase ribozyme fitness (log ratio)” value was at most -4.2.
To U13G A29U C93U C129G belongs at most -4.2.

The values are drawn from the RNAGym collection of RNA variant scans (doi:10.1073/pnas.2313332121).
